Data taken from a compilation of properties of binary mixtures (doi:10.1007/s10973-015-4753-3).
The densities may have been worked out from excess volumes.

Experiment: xn = mol fraction of the nth substance listed
Details: 298.15 K, 100 kPa

CCC(=O)[O-].CC[NH3+] + O
Details | mass density [kg/m3]
x2 = 0.105 | 990.1
x2 = 0.179 | 992.5
x2 = 0.284 | 996
x2 = 0.376 | 1000
x2 = 0.5 | 1005.9
x2 = 0.602 | 1012
x2 = 0.675 | 1017

CCCC(=O)[O-].CC[NH3+] + O
Details | mass density [kg/m3]
x2 = 0 | 962
x2 = 0.289 | 970.6
x2 = 0.395 | 974.8
x2 = 0.503 | 980.1
x2 = 0.599 | 986
x2 = 0.669 | 991.1
x2 = 0.802 | 1003.5

CC[NH3+].O=C[O-] + O
Details | mass density [kg/m3]
x2 = 0 | 1033.5
x2 = 0.095 | 1035.4
x2 = 0.166 | 1036.9
x2 = 0.282 | 1039.5
x2 = 0.375 | 1041.7
x2 = 0.614 | 1047
x2 = 0.668 | 1047.7
x2 = 0.8 | 1045.5
x2 = 0.91 | 1031.8
